We go through four molecules from US20140011728A1, “LONG-ACTING IL-1 RECEPTOR ANTAGONISTS” (Novo Nordisk A/S, published 2014).

The labels stand for the following.
B1: N-epsilon118-[N-octadecandioyl-gamma-L-glutamyl-[2-(2-amino-ethoxy)-ethoxy]-acetyl-[2-(2-amino-ethoxy)-ethoxy]-acetyl][Met25]hIL-1Ra([…]) (compound B) (ligand)
chain: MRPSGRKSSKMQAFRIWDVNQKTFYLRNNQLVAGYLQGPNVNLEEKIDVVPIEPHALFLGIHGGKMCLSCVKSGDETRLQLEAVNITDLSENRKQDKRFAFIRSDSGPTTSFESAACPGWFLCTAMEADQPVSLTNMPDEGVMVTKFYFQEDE
modifications: N-octadecandioyl-gamma-L-glutamyl-[2-(2-amino-ethoxy)-ethoxy]-acetyl-[2-(2-amino-ethoxy)-ethoxy]-acetyl on the epsilon amino group of K118 (position relative to hIL-1Ra Isoform 1); more than 80% of acylation was on this residue
B2: anakinra ([Met25]hIL-1Ra([…])) (ligand)
chain: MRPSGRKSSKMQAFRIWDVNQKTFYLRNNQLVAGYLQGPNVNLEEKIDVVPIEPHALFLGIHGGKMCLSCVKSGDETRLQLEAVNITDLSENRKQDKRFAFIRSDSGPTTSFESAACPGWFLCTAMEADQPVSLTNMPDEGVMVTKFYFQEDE
B3: [Met25]hIL-1Ra([…]) with N-hexadecandioyl-gamma-L-glutamate in position K118 or K121 (compound A) (ligand)
chain: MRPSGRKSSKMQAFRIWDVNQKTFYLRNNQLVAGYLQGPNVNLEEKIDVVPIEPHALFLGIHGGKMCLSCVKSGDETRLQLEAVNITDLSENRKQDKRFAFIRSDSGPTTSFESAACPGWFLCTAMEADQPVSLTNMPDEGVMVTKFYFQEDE
modifications: monoacylation with N-hexadecandioyl-gamma-L-glutamate on the epsilon amino group of K118 or K121 (positions relative to hIL-1Ra Isoform 1); product contained ~50% of each isomer
B4: [Met25]hIL-1Ra([…]) with N-octadecandioyl-gamma-L-glutamyl-[2-(2-amino-ethoxy)-ethoxy]-acetyl-[2-(2-amino-ethoxy)-ethoxy]-acetyl in position K31 or K34 … (ligand)
chain: not shown
modifications: monoacylation with N-octadecandioyl-gamma-L-glutamyl-[2-(2-amino-ethoxy)-ethoxy]-acetyl-[2-(2-amino-ethoxy)-ethoxy]-acetyl on the epsilon amino group of K31 or K34 (positions relative to hIL-1Ra Isoform 1)

This experiment addresses IL-1 receptor expressed by INS-1 cells (rat (INS-1 cells are derived from a rat …, UniProt Q02955)). In words: cell-based or functional assay.
Take B1: the “NO release” value was found to be 0.27 µM.

As for B2, the “NO release” value turned out to be 0.54 µM.

Regarding B3, the “NO release” value is -0.76 µM.

B4: the “NO release” value is 2.36 µM.
